Data published in the RNAGym collection of RNA variant scans (doi:10.7554/elife.90254).
The source gives no read counts; variants with many changes may rest on few reads.

B1: LINE1-mini (parent)
chain: GGCAGAGCUCAACACAGCGUGGCAAAGUGGCUGUGGCUAGACUGCC

Variants of: B1
Experiment: self-cleavage, relative activity (ratio to wild type); higher = more cleavage; in vitro, sequencing; the parent is a self-cleaving ribozyme

Variant	self-cleavage
GGCAGAGCUCAACACAACGUGGCAAAGUGCCUGUGACUAGACUGCC [G17A G30C G36A]	0.03
GGCAGAGCCCAACACAGCGUGGCCAAGUGGCUGUGGCUACACUGCC [U9C A24C G40C]	0.03
GGCAGAGCUCAACACAGCGUGGCAUAGAGGCGGUAGCUAGGCUGCC [A25U U28A U32G G35A A41G]	0.06
GGCAGAGUUCAACACAGCGUGGCAAUGUGGCUAUGGCUAGACUGCU [C8U A26U G33A C46U]	0.12
GGCAGACCUCAACACAGAGUGGCAAAGUGGCUGUGGCUAGACUUCC [G7C C18A G44U]	0.05
UGCAGAGCUCAAUACAGCGUGGCAAAGUGGCUGUGGCUAGACUGCU [G1U C13U C46U]	0.11
GGCAGAUCUCAACACAGCGUGGCAAAGUGGCUGUGGCUCUACUGCC [G7U A39C G40U]	0.32
GGCAUAGCUCAAGACAGCGUGGCAAAGUGUCGGUGGCUAGACUGCC [G5U C13G G30U U32G]	0.06
GGCAGAGCUCAGCACAGCUUGGCAAAGUGGAUGUGGCGAGACUGCC [A12G G19U C31A U38G]	0.02
GGCAGAGCUCAAUACAGCGUGGCAAAGUGGUGGUGGCUAGACUGCC [C13U C31U U32G]	0.24
GGCAGAACUCAACACAGCGUGGCAAAGUGGCCGGGGCUAGACUGCC [G7A U32C U34G]	0.25
GGCUGAGCGCAACACAGAGUGGCAAAGUGACUGUAGCUAGACCGCC [A4U U9G C18A G30A G35A U43C]	0.02
GGCCGAGCUCAACACAGCGUGGCAAAGUGGCUGUGGCUGCACUGCC [A4C A39G G40C]	0.05
GGCAGAGCUAAACACCGCGUGCCAAAGUGGCUGUGGCUAGACUGCA [C10A A16C G22C C46A]	0.02
GGCAGAGCUCAACACCGCAUGUCAAAGUGGCUGUGGGUAGACUGCC [A16C G19A G22U C37G]	0.03
GGCAGAGCUCAACACAGCGUGCAAAAGUGGCUUUGGCUAGACUGCC [G22C C23A G33U]	0.06
GGGAGAGCUCAUCACAGCGUGGCAAAGUGGCUGUGGCAAGACUGCC [C3G A12U U38A]	0.22
GGCAGUUGUCAACACAGCGUGGCAACGUGGCUUUGGCUAGACUGCC [A6U G7U C8G A26C G33U]	0
GGCAGAGCUCAACAAAGCUUGGCAAAGUGGCUGUGGCUAGACAGCG [C15A G19U U43A C46G]	0.01

Variant	self-cleavage
GGCAGAGCUCAACACAGCGUAGCAAAGUGUCUGUGGCUAAACUGCC [G21A G30U G40A]	0.06
GGCAGAGCUCAUCAGAGCGUGGCAAAUUGGCUGUGGCUAGACUGCC [A12U C15G G27U]	0.01
GGCAGUGCACAAAUCGGCGUCGCAAAGCGGCUGUGGCUAGACUGCC [A6U U9A C13A A14U A16G G21C U28C]	0.43
GGCAGAGCACAACACAGCGUGGCUAGGUGGCUGUGGCUAGACUGCC [U9A A24U A26G]	0.17
GGCAGAGCUCAACACAGCGUGGCAUAGUGGCUGUAGCUAUACUGCC [A25U G35A G40U]	0.03
GGCAGCGGUCUACACAGCGUGGCAAAGUGGCUGUGGCUAGACUGCC [A6C C8G A11U]	0.05
GGCAGAGUUCAACACAGCGUGGCAAAGUCACUGUGGCUAGACUGCC [C8U G29C G30A]	0
GGCAGAGAUCAACACAGGGUGGCACAGUGGCUGUGGCUAGACUGCC [C8A C18G A25C]	0.15
GGCAGAUAUCAACACAGCGCAGCAAAGUGGCGGUGGCUAGACUGCC [G7U C8A U20C G21A U32G]	0.07
GGCAGAGCUCAACACCGCGUGGCAAAGUAACUGUGGUUAAACUGCC [A16C G29A G30A C37U G40A]	0.02
GGCACAGCUCAAUACAGCGUGGCAAAGUGGCUGUGGCUAUACUGCC [G5C C13U G40U]	0.04
GGCAGAGCUCAACACAUCGUGGUAAAGUGGUUGUGGCUAGACUGCC [G17U C23U C31U]	0.01
GGCAUAACUCAACACAGCGUGGCAAAGUGGCUGUGGCUAAACUGCC [G5U G7A G40A]	0.48
GGCAGAGCCGGACACAGGGUGGCAAGGUGGCUGUGGCUAGCCUGCC [U9C C10G A11G C18G A26G A41C]	0
GGAAGAGCUCAACAUAGCGUGGUCAACUGGCUGUGGCUAGACUGCC [C3A C15U C23U A24C G27C]	0.05
GGCAGAGCUCAAUACAGCGUUGCAAAGUGGCUCUGGCUAGACUGCC [C13U G21U G33C]	0.04
GGGAGAGCUCAAUACAGCGUCGCAUAGUGGCUGUGGCUAUACUGCC [C3G C13U G21C A25U G40U]	0.11
GGCAGCGCUCAACACAGCGUGGCAAAGUGGCUGUGGCUAAACUGCA [A6C G40A C46A]	0.17
AGCAGUACUCAACACACCGUGGCAAAGUGGCUGUGGCUAGACUGCC [G1A A6U G7A G17C]	0.31

Variant	self-cleavage
GGCACAGCUCACCACAGCGUGGCAAAGUGGCUGUGGCUAGGCUGCC [G5C A12C A41G]	0.02
GGCAGAGCUAAACACAGCGUGGCAAAUUGGCUGUGGCUAUACUGCC [C10A G27U G40U]	0.05
GGAAGAGCUCAACACACCGCGGCAAAGUCGCAGUGGCUAGACUGCC [C3A G17C U20C G29C U32A]	0.08
GGCAGGGCUGAACACAGCGUGGCAAAGUGGCUGUGGCUAGACUGCG [A6G C10G C46G]	0.01
GGCAGAGCUCAACAUCGCUUGGCAAAGUGGCUGUGGCUAGACUGCC [C15U A16C G19U]	0.01
GGCCGAGCUCAACACAUCGUGGAAAAGUGGCUGUGGCUAGACUGCC [A4C G17U C23A]	0.11
GGCAUAGCUCAACAAAGCGUCGAAAAGUGGUUGUGGCUAGACUUCC [G5U C15A G21C C23A C31U G44U]	0.01
GGCAGGGCUCAACACUGCGUGGCAAAGUGGCUGUGGCGAGACUGCC [A6G A16U U38G]	0.01
GGCAGUGCUCAACACAGCGUGGCAAAGUGGCUGUGGCUUGAUUGCC [A6U A39U C42U]	1.23
GGCGGAGCUCAACACAGCGUGGCAAAGUGUCUGUGGCUAGACUGUC [A4G G30U C45U]	0.28
GGCAGAGCUCAACACAGCGUGGCAAAGGUGAUGUGGCUAGACUGCC [U28G G29U C31A]	0.26
GGCAGAGCUCAACACAUCGUGGCAAAGUGGCUGGGGCUAUAUUGCC [G17U U34G G40U C42U]	0.03
GGCAGAGCUCAACACAGCGUGGCAAUCUGGCUGUGGCUAGAAUGCC [A26U G27C C42A]	0.05
GGCAGAGCGCAACACACCGUGGCAAAGUGGCUGUGGUUAGACUGCC [U9G G17C C37U]	0.35
GGCAGAGCUCAAGACAUCGUCGCAAAGUGGCUGUGGCUAGACUGCC [C13G G17U G21C]	0.07
GGUAGAGCUCAACAAAGCGUGGCAAAGUGGCUGUGGAUAGACUGCC [C3U C15A C37A]	0.18
AGCAGUGCUCAACACAGCGUGGCAAAGUGGCUGAGGCUAGAAUGCC [G1A A6U U34A C42A]	0.04
GGCGGAGCUCAACACAGGGUGGCAACGUGGCUGUGGCUAGACUGCC [A4G C18G A26C]	0.06
